Data: PubChem BioAssay AID686979 (National Center for Advancing Translational Sciences (NCATS), 2013)
Several values for one entry are separate records, joined by “and”; a condition that tells them apart may be missing. Equal values may be shown once. The whole screen tested about 420,000 compounds, of which about 50,000 (12%) were called active. Inconclusive results, whose numbers are uncertain, are shown with a selection of clear calls. Calls come from the whole dose curve; as a rule, active = well fitted inhibition curve with a large enough effect; inconclusive = small, poorly fitted or top-dose-only effect; inactive = flat fitted curve, though single readings scatter. Potencies of inconclusive entries are doubtful fits and often do not repeat.

Test: qHTS for Inhibitors of human tyrosyl-DNA phosphodiesterase 1 (TDP1): qHTS in cells in presence of CPT; note: nearly all actives have a fitted effect of over 55% in size
Conditions: chicken DT40 Tdp1-/-;hTDP1 cells + 20 nM CPT, ATP luminescence, 48 h; activity change, negative = growth inhibition: at 46.2 µM (top of the series)
In short: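 Chicken DT40 Tdp1-/- cells stably complemented with human TDP1 were seeded at 400 cells/well in medium containing 20 nM camptothecin, exposed to pin-transferred compounds, and grown at 37 °C for at least 48 hr. Viability was read as ATP luminescence.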
% is set by controls: 0 for no effect and ±100 for the full control effect; potency is the fitted concentration of half-maximal effect; tags give direction and shape of the fitted curve.

Row | Structure (SMILES) | Potency | activity change, negative = growth inhibition
1 | CN1CCN(CCOCCOc2c(Cl)cc(Cl)cc2Cl)CC1 | inconclusive: 18.4 µM [inhibitor, single point] | –
2 | Cc1ccc2onc(CC(=O)N3CCN(c4cccc(C)c4C)CC3)c2c1 | inconclusive: 18.4 µM [inhibitor, single point] | –
3 | O=c1c2cc(NC(=S)N3CCC(N4CCCCC4)CC3)ccc2nc2n1CCCCC2 | inactive | –
4 | O=C(N[C@@H]1CC[C@@H](CCNS(=O)(=O)c2ccc(Cl)cc2)O[C@@H]1CO)c1cccnc1 | inactive | –
5 | NC(=O)c1sc(=S)n(-c2ccc(Br)cc2)c1N | inactive | –
6 | COCCn1c(=NC(=O)c2nc3ccccc3s2)sc2cc(S(C)(=O)=O)ccc21 | inconclusive: 10.3 µM [inhibitor, partial curve] | –
7 | O=C(NC1CCCC1)C1c2ccccc2OCC(=O)N1CC(F)(F)F (stereo not drawn) | inactive | –
8 | C/C(=N\NC(=O)C1CCCN(S(=O)(=O)c2ccccc2)C1)c1ccncc1 (stereo not drawn) | inactive | –
9 | CC(=NNC(=O)c1ccncc1)c1ccc(Cl)c(Cl)c1 | inconclusive: 29.1 µM [inhibitor, single point] | –
10 | C=C(C)CSc1nc2c(c(=O)[nH]c(=O)n2C)n1Cc1ccccc1 | inconclusive: 32.6 µM [inhibitor, partial curve] | –
11 | CCOC(=O)c1[nH]c2ccccc2c1NC(=O)c1cc(OCC)c(OCC)c(OCC)c1 | inconclusive: 9.2 µM [inhibitor, partial curve] | –
12 | C/C(=N\NC(=O)C1CC1)c1ccccc1O | inactive | –
13 | CC1=C(C(=O)OCc2ccccc2)C(/C=C/c2ccccc2)NC(=S)N1 (stereo not drawn) | active: 16.4 µM | –
14 | Nc1nc2cc3c(cc2cc1C(=O)NCc1ccc(F)cc1)OCO3 | active: 16.4 µM | –
15 | Cc1cc(Cl)ccc1OCC(=O)Nc1cccc(S(=O)(=O)NC2=NCCCCC2)c1 | active: 11.6 µM | –
16 | CCOc1ccc(NC(=O)Cn2c(CCC(=O)O)ccc2-c2ccc(C)cc2)cc1 | inactive | –
17 | CCN(c1ccccc1)S(=O)(=O)c1ccc(OC)c(NC(=O)c2c(C)noc2C)c1 | inactive | –
18 | CCOC(=O)N1CCC(Nc2ccc3nnc(-c4ccccc4)n3n2)CC1 | inconclusive: 18.4 µM [inhibitor, single point] | –
19 | O=C(O)CCN1/C(=C/C=Nc2ccccc2)Oc2ccccc21 | inactive | –
20 | Cc1ccccc1C(=O)Nc1cccc(C(=O)OCc2cc(=O)n3nc(C4CC4)sc3n2)c1 | inconclusive: 4.11 µM [inhibitor, full curve, poor fit] | –
21 | CN(C)/C=N/c1nc(-c2ccc3ccccc3c2)cs1 | inactive | –
22 | COc1ccc(CNC(=O)C2CC(c3ccc(C(F)(F)F)cc3)=NO2)cc1 (stereo not drawn) | inconclusive: 23.1 µM [inhibitor, single point] | –
23 | COc1ccc(-c2nc3c(C)cc(Br)cn3c2Cc2cccc(F)c2)cc1OC | inconclusive: 18.4 µM [inhibitor, single point] | –
24 | Oc1c(Br)cc(/C=N/n2c(-c3ccccc3)n[nH]c2=S)cc1Br | inactive | –

Row | Structure (SMILES) | Potency | activity change, negative = growth inhibition
25 | COc1ccccc1CNS(=O)(=O)c1cccc(S(=O)(=O)N2CCOCC2)c1 | – | inconclusive: -35.5% [inhibitor]
26 | CCCCC(=O)N(C)c1c(CC)nc2c(OCCC3CCCCC3)cccn12 | inconclusive: 23.1 µM [inhibitor, single point] | –
27 | CC(=O)c1ccc(Sc2nnnn2-c2ccccc2)c([N+](=O)[O-])c1 | active: 2.59 µM | –
28 | CCCCNc1c(-c2ccc(-c3cccc(Cl)c3)cc2)nc2ccccn12 | inconclusive: 37.2 µM [inhibitor, single point] and inconclusive: 18.4 µM [inhibitor, single point] | –
29 | CN(C)c1ccc(-c2ccc3ncnc(-n4ccnc4)c3c2)cc1 | inconclusive: 20.6 µM [inhibitor, single point] | –
30 | CC(C)(CN1CCN(c2ccccc2)CC1)NS(=O)(=O)c1ccccc1 | inconclusive: 23.1 µM [inhibitor, single point] | –
31 | O=C(C1Cc2ccccc2CN1S(=O)(=O)c1cccs1)N1CCCCCC1 (stereo not drawn) | inactive | –
32 | COc1ccc(C(=O)C2CCCN(C(=O)c3cc(C4CC4)[nH]n3)C2)c(C)c1 (stereo not drawn) | inconclusive: 25.9 µM [inhibitor, single point] | –
33 | O=C(O)c1ccc2nc(-c3ccco3)c(-c3ccco3)nc2c1 | inactive | –
34 | CCN1CCN(S(=O)(=O)c2ccc(Cl)c(C(=O)N(C)C3CCCCC3)c2)CC1 | inconclusive: 29.1 µM [inhibitor, single point] | –
35 | CC1=CC(c2ccccc2)n2nc(NS(=O)(=O)c3ccc(C)cc3)nc2N1 (stereo not drawn) | inactive | –
36 | COc1ccc2cc(/C=N/NC(=O)c3c(Cl)cnn3C)c(Cl)nc2c1 | inconclusive: 23.1 µM [inhibitor, single point] | –
37 | CC(C)(C)c1ccc(S(=O)(=O)NCc2ccc(C(=O)N3CCOCC3)cc2)cc1 | inconclusive: 29.1 µM [inhibitor, partial curve] | –
38 | Cc1cc(C)cc(N(CC(=O)NCc2ccco2)S(=O)(=O)c2c(C)noc2C)c1 | inactive | –
39 | COCCNc1nc(SCc2ccccc2)nc2sc3c(c12)CCC3 | inconclusive: 29.1 µM [inhibitor, single point] | –
40 | Cc1occc1-c1nnc(SCC(=O)Nc2nccs2)n1CCc1ccccc1 | active: 14.6 µM | –
41 | CC(=O)c1sc(NC(=O)COc2ccc(Cl)cc2Cl)nc1C | inactive | –
42 | Cc1nc(NC(=O)COC(=O)c2cccs2)c(Cl)cc1Cl | inactive | –
43 | COc1ccc(Cn2c(CO)cnc2SCC(=O)NCc2ccco2)cc1 | inactive | –
44 | CN(C)c1ccc(CCc2ccnc3ccccc23)cc1 | active: 12.6 µM | –
45 | Cc1ccc([N+](=O)[O-])cc1S(=O)(=O)N1CCn2cccc2C1c1ccc(F)c(F)c1 (stereo not drawn) | inconclusive: 25.9 µM [inhibitor, single point] | –
46 | COc1ccc([C@H]2CC(=O)C=C(c3ccc(SC)cc3)C2)cc1OC | active: 9.2 µM | –
47 | O=C(C(=NNc1ccccc1)c1ccccc1)c1ccccc1 | inconclusive: 20.6 µM [inhibitor, single point] | –
48 | CCCOc1ccc(NC(=O)CC2C(=O)N(Cc3ccccc3)C(=S)N2Cc2cccs2)cc1 (stereo not drawn) | active: 9.2 µM | –
